Measurements as given in PubChem BioAssay AID1452 (National Center for Advancing Translational Sciences (NCATS), 2008).
About 190 (0.13%) of roughly 150,000 compounds were called active. Inconclusive results, whose numbers are uncertain, are shown with a selection of clear calls. The call rests on the fitted dose curve; in most records, active means well fitted inhibition curve with a large enough effect; inconclusive means small, poorly fitted or top-dose-only effect; inactive means flat fitted curve, though single readings scatter. Potencies beside an inconclusive call are fits to weak or partial responses and may not hold up.

Molecular target: Polyunsaturated fatty acid lipoxygenase ALOX12 (Homo sapiens) (UniProt P18054)
UniProt P18054, sequence (P18054 whole entry, looked up): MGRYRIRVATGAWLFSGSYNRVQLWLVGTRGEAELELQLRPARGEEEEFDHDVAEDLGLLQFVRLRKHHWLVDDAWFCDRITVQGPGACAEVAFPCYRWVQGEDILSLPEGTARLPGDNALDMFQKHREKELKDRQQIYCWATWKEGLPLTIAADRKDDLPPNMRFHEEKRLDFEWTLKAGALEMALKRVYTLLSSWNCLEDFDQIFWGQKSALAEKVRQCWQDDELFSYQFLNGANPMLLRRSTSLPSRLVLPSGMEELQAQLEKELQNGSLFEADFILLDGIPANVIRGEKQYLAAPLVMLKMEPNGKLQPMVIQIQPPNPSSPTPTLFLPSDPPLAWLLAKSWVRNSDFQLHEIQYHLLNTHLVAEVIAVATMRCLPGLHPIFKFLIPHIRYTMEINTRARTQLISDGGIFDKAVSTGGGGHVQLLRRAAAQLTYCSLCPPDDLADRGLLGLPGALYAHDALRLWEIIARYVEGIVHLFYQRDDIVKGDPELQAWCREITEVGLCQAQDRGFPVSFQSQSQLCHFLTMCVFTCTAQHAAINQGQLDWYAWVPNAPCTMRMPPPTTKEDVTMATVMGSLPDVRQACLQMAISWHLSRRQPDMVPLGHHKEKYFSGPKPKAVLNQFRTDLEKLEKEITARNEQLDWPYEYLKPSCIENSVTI
Test: qHTS Assay for Inhibitors of 12-hLO (12-human lipoxygenase); further: nearly all actives have a fitted effect of over 55% in size
Details: purified 12-hLO, xylenol orange hydroperoxide absorbance; series mostly up to 57.1 µM; activity change, negative = inhibition: at the top concentration
Text: Assay Provider: Holman, T.R., University of California, Santa Cruz Screening Center PI: Austin, C.P. Screening Center: NIH Chemical Genomics Center [NCGC] Human lipoxygenase 12hLO is a member of the closely related lipoxygenase family of enzymes which catalyze the site-specific oxidation of arachidonic acid to various hormone precursor molecules and as such is a candidate for drug development in a variety of disease areas, such as cancer and inflammation. Inhibition of 12hLO activity was screened by utilizing arachidonic acid as a substrate. The extent of hydroperoxide product formation was measured by a secondary chromogenic reaction in which xylenol orange (XO, Sigma-Aldrich, cat. number 39,818-7) reacts with the ferric ions produced from the reaction between the hydroperoxide and ferrous ions. The Fe(III)-XO complex is characterized with red-shifted absorbance at 560 nm. A purified preparation of human 12hLO was supplied by Professor Ted Holman, University of California, Santa Cruz.
Assay Protocol: Buffer: 25 mM Hepes pH 7.0, 0.01% Triton X-100. Reagents/Controls: Buffer in columns 3 and 4 as negative control (no enzyme). Substrate solution: 40 uM arachidonic acid (Sigma-Aldrich, St. Louis, MO) final concentration dispensed throughout the plate. Enzyme: 150 nM 12hLO final concentration in columns 1, 2, 5-48. Column 1 is neutral (100% activity). Column 2 contained pin-transferred titration of NDGA (nordihidroguaiaretic acid, Sigma-Aldrich, N 5023, top concentration 20 mM in DMSO, then 1:3 dilution in duplicate). (Dilution factor: 23 nL into 4 uL.) Chromogenic detection reagent (divalent iron/xylenol orange, Fe-XO): 200 uM xylenol orange plus 300 uM ferrous ammonium sulfate prepared freshly in 50 mM sulfuric acid. Assay Steps: Three uL of enzyme were dispensed to 1536-well Greiner black clear bottom plates. Compounds and controls (23 nL) were transferred via Kalypsys PinTool. The plates were incubated for 15 min at room temperature, and then 1 uL of substrate solution was added to start the reaction. After room temperature incubation for 30 minutes, 4 uL of Fe-XO solution was added to each well and the plates were incubated for 30 min. The absorbance at 405 and 573 nm were measured using ViewLux (Perkin-Elmer) High-throughput CCD imager and absorbance protocol settings. The 573-to-405 absorbance ratio was used to compute reaction progress.
On the % scale 0 is the no-effect control and ±100 the full control effect; potency means the concentration at half of the fitted maximal effect; tags describe the fitted curve by direction and shape.

Structure (SMILES) | activity change, negative = inhibition | Potency
Cc1cccc(C#N)c1NC1=CC(=O)CC(C)(C)C1 | inactive: -0.136% | 
COC(=O)c1ccc(O)c(Sc2cc(C(=O)OC)ccc2O)c1 |  | inconclusive: 6.31 µM [inhibitor, partial curve]
COc1ccccc1NC(=S)NC(=O)C(C)(C)C |  | active: 12.6 µM
CCc1cc(C=NC2CCCCC2)c(O)s1 |  | inconclusive: 17.8 µM [inhibitor, partial curve]
O=c1[nH]c(NNC(=S)NCc2ccccc2)nc2c1C1(CCCCC1)Cc1ccccc1-2 |  | inconclusive: 39.8 µM [inhibitor, single point]
CC1(O)CC2C(CC1O)C2(C)C (stereo unspecified) | inactive: 1.33% | 
CCCCC/C=C\C/C=C\C/C=C\C/C=C\CCCCCC(=O)NCCc1ccc(O)c(O)c1 |  | inconclusive: 2.82 µM [inhibitor, full curve]
O=C(CNC(=O)c1ccccc1)OCC(=O)N1c2ccccc2Sc2ccccc21 | inactive: -0.711% | 
O=C(COc1cccc(Cl)c1)NNC(=S)Nc1ccccc1 |  | inconclusive: 28.2 µM [inhibitor, single point]
N#CCCn1nc(-c2ccc(Cl)cc2)cc1Nc1ccccc1NC(=O)C(F)(F)F |  | inconclusive: 1.26 µM [inhibitor, full curve]
OCc1ccnc2c(O)cccc12 |  | inconclusive: 1.78 µM [inhibitor, full curve]
CCCc1ccc(Oc2c(-c3ccc(O)c(C)c3O)n[nH]c2C)cc1 |  | inconclusive: 3.98 µM [inhibitor, full curve, poor fit]
Oc1ccc(-c2n[nH]c(=S)n2Cc2ccccc2)cc1 | inactive: -3.65% | 
CCOCCCN(C(=O)Nc1ccc(CC)cc1)C1CCN(C(C)=O)CC1 | inactive: -0.775% | 
CCn1c(C)cs/c1=N\C(=S)Nc1ccccc1C |  | inconclusive: 28.2 µM [inhibitor, single point]
O=C(Nc1nc(-c2cc3ccccc3oc2=O)cs1)c1ccc(Br)o1 |  | active: 20 µM
S=C(NNc1ccc2ccccc2c1)NC1CCCCC1 |  | inconclusive: 17.8 µM [inhibitor, partial curve]
COCC(=O)N1CCC2(CCCN(Cc3ccccc3)C2)CC1 | inactive: -2.42% | 
COc1ccc(-n2cnc3cc(NS(=O)(=O)c4ccc(C)cc4)ccc32)cc1 |  | inconclusive: 12.6 µM [inhibitor, partial curve]
C=CCCCCCCCCCCC/C=C/C(O)COC(C)=O (stereo unspecified) | inactive: -11.4% | 
CC(C)Oc1cccc(C(=O)NC(=S)Nc2ccc3c4c(cccc24)CC3)c1 |  | inconclusive: 28.2 µM [inhibitor, partial curve]
CNC(=S)N/N=C/c1cn(Cc2ccc(C)cc2)c2ccccc12 |  | inconclusive: 25.1 µM [inhibitor, single point]
COc1cc(C(=O)N2CCN(c3cccc(C)c3C)CC2)cc(OC)c1OC | inactive: -0.752% | 
O=C(CSC1=NCCS1)NC1CCCCC1 |  | inconclusive: 35.5 µM [inhibitor, single point]

Structure (SMILES) | activity change, negative = inhibition | Potency
O=C1CC(Nc2ccc(N3CCOCC3)cc2)C(=O)N1c1cccc(C(F)(F)F)c1 (stereo unspecified) |  | inconclusive: 2.82 µM [inhibitor, full curve]
CC(Sc1nc2cc([N+](=O)[O-])ccc2n1-c1ccc(F)cc1)C(=O)NCc1ccc2c(c1)OCO2 (stereo unspecified) |  | inconclusive: 0.562 µM [inhibitor, full curve]
O=C(/C=C/c1ccco1)NC(=S)Nc1ccc(Cl)cn1 |  | inconclusive: 17.8 µM [inhibitor, partial curve]
COc1cc(NC(=S)N2CCC(C(O)(c3ccccc3)c3ccccc3)CC2)cc(OC)c1 |  | inconclusive: 3.55 µM [inhibitor, full curve]
Cn1c(SCC(=O)N/N=C/C=C\c2ccco2)nc2ccccc21 |  | inconclusive: 7.94 µM [inhibitor, full curve, poor fit]
Nc1cc(C(Cl)=C(Cl)Cl)c(S(N)(=O)=O)cc1S(N)(=O)=O |  | inactive
O=C(O)c1c[nH]c2cc(C(F)(F)F)ccc2c1=O |  | inconclusive: 2.51 µM [inhibitor, full curve, poor fit]
Cn1ccnc1C[C@@](C)(O)c1ccccc1 | inactive: 6.88% [at 11.4 µM] | 
O=C1c2cccc3c(Cl)ccc(c23)C(=O)N1O |  | inconclusive: 20 µM [inhibitor, partial curve]
CCOc1cccc(C(=O)NC(=S)Nc2ccccc2)c1 |  | inconclusive: 17.8 µM [inhibitor, partial curve]
O=S(=O)(Cc1ccccc1Cl)CC(O)COc1ccccc1Cl (stereo unspecified) | inactive: -10.4% | 
COCC(=O)N1CCC[C@@]2(CCN(C(=O)Nc3ccccc3)C2)C1 | inactive: 1.31% | 
O=C(/C=C/c1ccc(O)c(O)c1)OCCc1ccccc1 |  | inconclusive: 28.2 µM [inhibitor, partial curve]
CCCCC(=O)Nc1ccc2c(c1)C(=O)NC2=O |  | inconclusive: 7.08 µM [inhibitor, single point]
O=C(OCC1OC(OC(=O)c2cc(O)c(O)c(OC(=O)c3cc(O)c(O)c(O)c3)c2)[C@@H](OC(=O)c2cc(O)c(O)c(OC(=O)c3cc(O)c(O)c(O)c3)c2)C(OC(=O)c2cc(O)c(O)c(OC(=O)c3cc(O)c(O)c(O)c3)c2)C1OC(=O)c1cc(O)c(O)c(OC(=O)c2cc(O)c(O)c(O)c2)c1)c1cc(O)c(O)c(OC(=O)c2cc(O)c(O)c(O)c2)c1 (stereo partly specified) |  | active: 0.562 µM
O=[N+]([O-])c1ccc(N2CCCCC2)nc1 |  | inconclusive: 15.8 µM [inhibitor, partial curve]
COc1ccc(Cc2nc(C(=O)Nc3ccc(OC)cc3)cs2)cc1 |  | inconclusive: 11.2 µM [inhibitor, partial curve]
O=C1c2ccccc2C(=O)c2c1ccc(O)c2O |  | inconclusive: 15.8 µM [inhibitor, partial curve]
Cc1ccc(NC(=S)N/C(=N/S(=O)(=O)c2ccccc2)c2ccccc2)cc1 |  | inconclusive: 39.8 µM [inhibitor, single point]
O=C(NC(Cc1ccccc1)c1nc2ccccc2[nH]1)C1CC(=O)N(c2ccc3c(c2)OCCO3)C1 (stereo unspecified) |  | inconclusive: 25.1 µM [inhibitor, single point]
CCOC(=O)NC(=O)/C(C#N)=N/Nc1ccc(F)cc1 |  | inconclusive: 2.82 µM [inhibitor, full curve]
COc1cc(C(=O)NC(=S)NC(C)C)cc(OC)c1OC |  | inconclusive: 14.1 µM [inhibitor, single point]
Cc1ccc(NC(=S)C2=C(O)c3sccc3N(C)S2(=O)=O)cc1 |  | inconclusive: 28.2 µM [inhibitor, single point]
O=C(NC(=S)NCCc1ccccc1)C1CCCCC1 |  | inconclusive: 14.1 µM [inhibitor, partial curve]

Structure (SMILES) | activity change, negative = inhibition | Potency
N#C/C(=C\c1c(N2CCOCC2)nc2ccccn2c1=O)S(=O)(=O)c1ccccc1 |  | inconclusive: 22.4 µM [inhibitor, single point]
Oc1ccc(Cl)cc1Cc1cc(Cl)cc(Cc2cc(Cl)ccc2O)c1O | inactive: -6.03% [at 11.4 µM] | 
CCc1cccc(CC)c1NC(=O)CO/N=C(\C)c1cccs1 | inactive: -1.58% | 
CCOC(=O)c1[nH]c2ccc(OC)cc2c1NC(=O)c1ccc2c(c1)OCO2 |  | inconclusive: 22.4 µM [inhibitor, partial curve]
S=C(NCC1CCCCC1)Nc1ccc(Oc2ccccc2)cc1 |  | inconclusive: 39.8 µM [inhibitor, single point]
CN1C(=O)c2ccc(NC(=S)NC(=O)C(C)(C)C)cc2C1=O | inactive: -11.3% | 
CC(C)n1c(=S)[nH]c2c1c(=O)[nH]c(=O)n2C |  | inconclusive: 25.1 µM [inhibitor, partial curve]
CCc1nnc(NS(=O)(=O)c2ccc(NC(=S)NC(=O)c3ccc(Br)cc3)cc2)s1 |  | inconclusive: 3.98 µM [inhibitor, full curve]
COc1nccnc1NS(=O)(=O)c1ccc(NC(=S)NC(=O)c2ccccc2)cc1 |  | inconclusive: 28.2 µM [inhibitor, single point]
CCCCC/C=C\C\C=C/C=C/C=C/[C@@H](SCC(N)C(=O)NCC(=O)O)[C@@H](O)CCCC(=O)O (stereo partly specified) | inactive: -0.237% | 
c1ccc(OCCSc2nnnn2-c2ccccc2)cc1 | inactive: 3.42% | 
CCN=C1SC(CC(=O)Nc2sc3c(c2C#N)CCCC3)C(=O)N1CC (stereo unspecified) |  | inconclusive: 3.55 µM [inhibitor, single point]
CCC(/C=C/C(C)C1CCC2C3CC=C4CC(O)CC[C@@]4(C)C3CC[C@@]12C)C(C)C (stereo partly specified) | inactive: 1.39% | 
Cc1ccc(-n2sc3ccccc3c2=O)cc1S(=O)(=O)N1CCCCC1 |  | active: 3.16 µM
CN(C)c1ccc(CN(C(=O)COc2ccc(F)cc2)C2CCS(=O)(=O)C2)cc1 (stereo unspecified) | inactive: 0.637% | 
NC1=NC2(CCN(Cc3ccccc3)CC2)n2c(nc3ccccc32)N1 |  | inconclusive: 20 µM [inhibitor, partial curve]
COC(=O)c1cccc(S(=O)(=O)N(Cc2ccco2)Cc2cc3ccc(OC)cc3[nH]c2=O)c1 |  | inconclusive: 14.1 µM [inhibitor, partial curve]
CS(=O)(=O)N(Cc1ccccc1)c1ccc(C(=O)NCC2CCCO2)cc1 (stereo unspecified) | inactive: 3.8% | 
CC(C)Oc1ccc(CCc2n[nH]c(=S)n2Cc2ccccc2)cc1 |  | active: 31.6 µM
COc1cc(N=c2ssnc2Cl)c(OC)cc1Cl |  | active: 20 µM
O=C(O)/C=C/C(=O)NNC(=O)c1ccccc1Br | inactive: -5.37% | 
O=c1c2ccccc2sn1-c1ccc(S(=O)(=O)N2CCCC2)cc1 |  | inconclusive: 1.78 µM [inhibitor, full curve]
Cc1cc2oc(=O)cc(-c3ccccc3)c2c(C)c1/C=C/c1ccc(F)cc1 | inactive: -3.71% [at 0.00818 µM] | 
